Source: PubChem BioAssay AID1159614 (National Center for Advancing Translational Sciences (NCATS), 2016)
Hit rate of the full screen: of about 45,000 compounds, about 65 (0.1%) were called active. The call rests on the fitted dose curve; in most records, active means well fitted activation curve with a large enough effect; inconclusive means small, poorly fitted or top-dose-only effect; inactive means no such curve, though single readings can be large or run the other way. This is one part of the list.

The compounds below were run against Galactocerebrosidase (Homo sapiens) (UniProt P54803) (assay: A Novel Cell-Based Assay to Identify Small Molecules for B -Galactocerebrosidase). Settings: 145M-Twi-hGALC-G270D cells, HMU-beta-Gal fluorescence, 48 h; series mostly up to 57.5 µM; activation: at the top concentration.
Outline: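 qHTS, 1536-well; 145M-Twi-hGALC-G270D cells (WT line also made) in DMEM/F12 + 10% FBS; compound incubation on live cells; HMU-β-gal 0.1 mM final, pH 5.2, NaTC; carbonate stop; fluorescence increase = enhanced residual activity.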
Further: 0% is about no effect; nearly all actives have a fitted effect of over 65% in size.

Sequence of UniProt P54803 (P54803 whole entry, looked up): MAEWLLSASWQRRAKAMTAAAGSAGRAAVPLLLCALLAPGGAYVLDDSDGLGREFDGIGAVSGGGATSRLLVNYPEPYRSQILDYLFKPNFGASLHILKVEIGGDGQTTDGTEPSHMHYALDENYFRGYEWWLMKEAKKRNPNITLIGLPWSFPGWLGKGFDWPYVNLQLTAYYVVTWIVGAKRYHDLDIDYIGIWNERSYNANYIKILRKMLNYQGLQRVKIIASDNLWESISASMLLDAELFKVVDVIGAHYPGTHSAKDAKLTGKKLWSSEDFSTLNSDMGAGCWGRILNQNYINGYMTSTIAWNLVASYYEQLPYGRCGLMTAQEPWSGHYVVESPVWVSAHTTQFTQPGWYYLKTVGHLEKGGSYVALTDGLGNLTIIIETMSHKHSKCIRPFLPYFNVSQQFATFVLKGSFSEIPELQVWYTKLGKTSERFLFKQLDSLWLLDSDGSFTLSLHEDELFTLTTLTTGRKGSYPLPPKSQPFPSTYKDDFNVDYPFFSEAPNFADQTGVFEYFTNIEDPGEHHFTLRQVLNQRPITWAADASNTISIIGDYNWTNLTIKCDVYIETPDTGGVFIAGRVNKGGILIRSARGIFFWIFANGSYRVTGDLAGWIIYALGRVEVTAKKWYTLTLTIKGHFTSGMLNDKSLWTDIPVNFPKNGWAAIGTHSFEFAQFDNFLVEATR

activation, inactive:
COC(=O)c1cc(NC(=O)CCc2c(C)nc3cc(-c4ccccc4)nn3c2C)cc(C(=O)OC)c1 -8.8%
CCOc1cc2c(cc1OCC)C(c1c(F)cccc1Cl)CC(=O)N2 (configuration not stated) -11.9%
COc1ccc(C)cc1NC(=O)Cn1cc(S(=O)(=O)Cc2ccccc2Cl)c2ccccc21 -7.4%
CCc1ccccc1NC(=O)c1nc(-c2ccncc2)no1 -14.1%
Cc1cccc(NC(=O)Cn2c(C(F)(F)F)nc3ccccc32)c1C 5.17%
CC(C)CCNC(=O)c1ccc2c(c1)N(Cc1ccccc1F)C(=O)c1ccccc1S2=O (configuration not stated) -8.82%
COc1ccccc1OCC(=O)NCC1(N(C)C)CCCCC1 -8.95%
Cc1ccc(N2CC(NC(=O)C(=O)c3c[nH]c4ccccc34)CC2=O)cc1 (configuration not stated) -5.01%
O=C(NC1CCCCC1)c1ccc(CSc2nc3cccnc3n2Cc2ccccc2F)cc1 -8.58%
O=C(Cn1ncc2c(Cl)cccc21)NCc1cccc(Br)c1 -8.77%
Cc1ccc(Cn2c(CCCNC(=O)C3CCCCC3)nc3ccccc32)cc1 -11.3%
N#C/C(=C\c1c(Oc2ccc(Br)cc2)nc2ccccn2c1=O)c1nc2ccccc2s1 3.41%
COC(=O)c1cccc(NC(=O)Nc2cc(C(=O)NCc3cccc(F)c3)ccc2N2CCCC2)c1 -26.8%
O=C(CSc1nc(=O)n(Cc2cccnc2)c2c1CCC2)Nc1ccc(F)cc1F -16%
Cc1ccc(Cc2nc3ccccc3nc2SCC(=O)N2CCCCC2C)cc1 (configuration not stated) 2.88%
Oc1ccc(NCc2ccc(OCc3ccccc3Cl)cc2)cc1 -18.8%
CN(C)c1ccc(CNC(=O)CCCn2ccc3cc(S(=O)(=O)N4CCCC4)ccc32)cc1 -1.57%
COc1ccccc1N1CCN(C(=O)c2cn(C)c3ccc(S(=O)(=O)N4CCOCC4)cc3c2=O)CC1 -5.15%
Cc1nn(C(C)C(=O)NC2CCC(C)CC2)c(=O)c2cc3sccc3n12 (configuration not stated) -19.1%
COc1ccc(CCN2CCC(CNC(=O)c3cnn(-c4ccccc4)c3C3CCN(C(=O)OC(C)(C)C)CC3)CC2)cc1 -5.92%
COc1cccc(N2CCN(S(=O)(=O)c3ccc4c(c3)CCCN4C(C)=O)CC2)c1 -10.9%
CCOC(=O)c1c(NC(=O)c2cc(=O)c3ccc(C)cc3o2)sc(C)c1C 4.48%
COc1ccc(Cl)cc1NC(=O)c1cc(C)nn1-c1ccccc1 -14.1%
COc1ccc(N2CCN(C(=O)CS(=O)(=O)c3cccc4nsnc34)CC2)cc1 -16.7%
CC(=O)N1CCc2cc(Br)cc(S(=O)(=O)N3CCN(c4cccc(C)c4)C(C)C3)c21 (configuration not stated) -12.8%
O=C(NCCc1csc(-c2cccnc2)n1)c1ccc(F)c(F)c1 -15.1%
CCCCN1CCc2nc(N3CCN(C)CC3)ncc2C1 -15.2%
O=S(=O)(c1ccc(Cl)cc1)c1nnn2c1nc(N1CCCCC1)c1sccc12 -0.256%
CCOc1ccc(C2C(C(=O)Nc3ccc(Cl)cc3)=C(C)Nc3nc(C(F)(F)F)nn32)cc1 (configuration not stated) -17.7%
COc1ccc(OC)c(S(=O)(=O)N2CC=C(c3c(C)n(CC(=O)N4CCCC4)c4ccccc34)CC2)c1 -7.52%
COc1ccc(-c2nc3sc(CCNC(=O)c4ccccc4C)c(C)n3n2)cc1 -1.45%
Cc1cn(C)c(CC(=O)N2CCN(c3ccccc3F)CC2)c1C(=O)O -4.88%
CC(CNC(=O)CCS(=O)(=O)c1ccc2c(c1)oc(=O)n2C)c1ccccc1 (configuration not stated) -21.3%
Cc1ccc2c(c1)-c1c(c(C(=O)N3CCN(c4cc(Cl)ccc4C)CC3)nn1C)CS2 -11.7%
Cc1cccc(NC(=O)N2CCC(CN3CCOCC3)CC2)c1C 1.44%
Fc1ccccc1-n1ncc2c1ncn1nc(Cc3ccccc3)nc21 -3.97%
Cc1ccccc1NC(=O)CN(c1ccc(Cl)cc1Cl)S(=O)(=O)c1ccccc1 -6.89%
CCCCN(C)CCNC(=O)c1ccc2c(c1)NC(=O)CN2 -13.9%
Cc1cccc(C(=O)Nc2nc(-c3nnn(-c4cc(F)ccc4F)c3C)ns2)c1 -4.46%
Cc1cccn2c(=O)c3cc(C(=O)N(Cc4ccccc4)C(C)C)sc3nc12 -10.4%
Cc1c(C(=O)NCCc2ccc(S(N)(=O)=O)cc2)sc2nc3n(c(=O)c12)CCCC3 -14.5%
O=S(=O)(NCc1ccccc1Cl)c1ccc(N2CCCCS2(=O)=O)cc1 -1.82%
COc1ccc(-c2ccc3cc(C(=O)O)ccc3c2)cc1C12CC3CC(CC(C3)C1)C2 -16.4%
CCc1ccccc1NC(=O)CSc1nc2c(oc3ccccc32)c(=O)n1-c1ccccc1F -11.2%
Cc1ccc(NC(=O)C(=O)NCC(c2cccnc2)N2CCN(Cc3ccccc3)CC2)cc1 (configuration not stated) -14.4%
CC(=O)Nc1ccc(-c2nnc(SCC(=O)c3ccc([N+](=O)[O-])cc3)o2)cc1 -8.5%
Cc1ccc2ccc3cc(C(=O)N4CCN(c5ccccc5)CC4)nc3c2[nH]1 -27.1%
Cc1cc(Cl)ccc1NC(=O)C1CCN(c2nnc(-n3c(C)ccc3C)s2)CC1 -13.4%
CCOC(=O)c1ccccc1NC(=O)N1CCOc2ccc(Cl)cc21 9.25%
COc1ccc(-c2cc(C(F)(F)F)n3nc(C(=O)NCC45CC6CC(CC(C6)C4)C5)cc3n2)cc1OC -0.768%
Cc1cccc(Cn2c(C)c(CNC3CCCCC3)c(C(=O)O)c2C)c1 -2.91%
CC1CCN(S(=O)(=O)c2ccc3c(c2)N(CC(=O)O)C(=O)CO3)CC1 -9.83%
CC1CCN(c2csc3ccc(F)cc3c2=O)CC1 -13.8%
CN(CCCNC(=O)Cn1ncc2c([nH]c3ccccc32)c1=O)Cc1ccccc1 3.99%
Cc1ccccc1CNC(=O)C(=O)NCC(c1ccc2c(c1)OCO2)N1CCOCC1 (configuration not stated) -8.89%
Cc1ccccc1S(=O)(=O)Cc1ccc(C(=O)NCCc2ccccc2)o1 -4.86%
Cc1ccc2c(c1)-c1c(cnn1CC(=O)N1CCN(c3cc(C)ccc3C)CC1)CO2 -9.27%
COCCc1nn2c(=O)cc(COC(=O)c3ccco3)nc2s1 -12.5%
CC(C)N1CCc2c(sc(NC(=O)c3ccc(S(=O)(=O)N(C)C4CCCCC4)cc3)c2C(N)=O)C1 -29.5%
O=C(NCc1ccc(Cl)cc1)c1ccc(CNS(=O)(=O)c2ccc(F)cc2)cc1 -15.8%
CC(C)(C)c1ccc(C(=O)Nc2ccc(OCc3cc(=O)n4ccsc4n3)cc2)cc1 -12.4%
COc1ccc(CCNC(=O)c2ccc(Cn3c(=O)c4ccccc4n(Cc4ccc(F)cc4Cl)c3=O)cc2)cc1OC -12.6%
Cc1cc(N2CCN(c3ccccc3)CC2)n2cnnc2n1 -1.43%
CCC(Sc1nc2cc(OC)c(OC)cc2c(=O)n1Cc1ccc(OC)cc1)C(=O)NCCOC (configuration not stated) -2.41%
CC(=O)c1ccc(NC(=O)c2cc(S(=O)(=O)N3CCOCC3)ccc2C)cc1 -8.98%
CC(C)Cc1nn2c(=O)cc(COC(=O)c3cccc(NS(C)(=O)=O)c3)nc2s1 -19.3%
Cc1nc(N2CCOCC2)c2c(C(=O)N(C)c3ccccc3)c(C)oc2n1 -18.3%
COc1ccccc1CNC(=O)C1CCN(C2=NS(=O)(=O)C(c3ccc(C)c(C)c3)=C2C)CC1 11.4%
Cc1cc(C)cc(OCC(=O)N(Cc2ccc(Cl)cc2)C2CCS(=O)(=O)C2)c1 (configuration not stated) -35.6%
Cc1nc(-c2ccc(F)cc2)sc1CCNC(=O)c1ccc(OC(C)C)cc1 -4.03%
CCCN1CCN(CCCNC(=O)c2ccc3c(c2)sc2nc(-c4ccc(OCC)cc4)cn23)CC1 -8.4%
CCOc1ccc(-c2cn3c(n2)sc2cc(C(=O)N4CCCC(C)C4)ccc23)cc1 (configuration not stated) -5.27%
CCN1CCN(C(=O)c2ccc3c(c2)N(Cc2ccccc2)C(=O)c2ccccc2S3(=O)=O)CC1 8.17%
COc1ccc(CNC(=O)CCCN2C(=O)CCn3nc(-c4cn(C)c5ccccc45)cc32)cc1 16.4%
O=C(NCCC1=CCCCC1)C1CCN(C(=O)N2CCOc3ccccc32)CC1 -11.1%
COc1ccc(OC)c(NC(=O)Cn2ncc3c2-c2ccccc2OC3)c1 29.3%
Cc1ccc(-n2c(=O)c3cccnc3n2CC(=O)Nc2ccc(C)cc2Cl)cc1 -8.36%
O=C(NCCc1ccc(Cl)cc1)C1(c2cccs2)CCOCC1 -3.74%
Cc1c(Cl)cccc1NC(=O)CSc1nc(=O)[nH]c2c1CCCC2 -7.17%
CCN(CC)CCn1c(=N)n(CCOc2ccccc2Cl)c2ccccc21 -23.3%
COc1ccc(C2=C(C)C(=O)N(Cc3ccc(C(=O)Nc4ccc(F)cc4C)cc3)S2(=O)=O)cc1 -3.45%
O=C(NCCc1ccccc1)c1ccc(CSc2nc3cccnc3n2Cc2ccccc2F)cc1 -6.29%
O=C1CN(C(=O)c2ccc(S(=O)(=O)N3CCCCC3)cc2)C(c2ccc(F)cc2)c2cc(Cl)ccc2N1 (configuration not stated) -11.9%
Cc1cccc(-c2nc(CS(=O)CC(=O)NCc3ccc(Cl)cc3)c(C)o2)c1 (configuration not stated) -15.8%
CCOC(=O)c1c(C)oc2nc(C)nc(NCC3CCN(Cc4ccccc4C)CC3)c12 -9.89%
Cc1ccc2nc(-c3cccc(NC(=O)c4cccc5c(Cl)cccc45)c3)oc2c1 -14.1%
O=C(NCC(c1cccnc1)N1CCOCC1)C(=O)Nc1ccc(Cl)cc1 (configuration not stated) -10.8%
COc1ccc(-c2[nH]ncc2C(=O)NCc2cccc(Cl)c2)cc1 0.982%
COc1cccc(-c2cn3c(n2)sc2cc(C(=O)NCc4ccccc4F)ccc23)c1 -8.23%
CCOC(=O)C(=O)CCc1ccccc1 -5.66%
CCOC(=O)c1cc(-c2ccccc2)n(CC(=O)NCc2ccc(C)cc2)c1C -7.61%
CC12CC3CC(C)(C1)CC(N)(C3)C2 -4.88%
COc1ccc(CCNC(=O)C(=O)Nc2ccc(C)c(C)c2)cc1 -14.2%
O=C(Nc1ccc(S(=O)(=O)N2CCOCC2)cc1)c1cc(Cl)ccc1NS(=O)(=O)c1ccc(Cl)s1 -11.8%
CCc1ccc(CNC(=O)c2cnc(N3CCCCC3)c3ccccc23)cc1 2.52%
O=C(CN1C(=O)CC(c2ccco2)Sc2ccccc21)Nc1cccc(C(F)(F)F)c1 (configuration not stated) -26.1%
N[C@@H](Cc1cc(I)c(O)c(I)c1)C(=O)O -10.8%
